# Assay results reported in paper PMC4336329 (PLoS ONE, 2015).
# About 2,200 (0.71%) of roughly 310,000 compounds showed an effect of 50% or more. Effects have a minus sign here. Some of the results follow.
# Target: human ether-à-go-go-related gene (hERG) potassium channel (human, UniProt Q12809)
# Test: primary screen, population patch clamp on CHO cells stably expressing hERG
# Sequence of human ether-à-go-go-related gene (hERG) potassium channel (Q12809 whole entry, looked up): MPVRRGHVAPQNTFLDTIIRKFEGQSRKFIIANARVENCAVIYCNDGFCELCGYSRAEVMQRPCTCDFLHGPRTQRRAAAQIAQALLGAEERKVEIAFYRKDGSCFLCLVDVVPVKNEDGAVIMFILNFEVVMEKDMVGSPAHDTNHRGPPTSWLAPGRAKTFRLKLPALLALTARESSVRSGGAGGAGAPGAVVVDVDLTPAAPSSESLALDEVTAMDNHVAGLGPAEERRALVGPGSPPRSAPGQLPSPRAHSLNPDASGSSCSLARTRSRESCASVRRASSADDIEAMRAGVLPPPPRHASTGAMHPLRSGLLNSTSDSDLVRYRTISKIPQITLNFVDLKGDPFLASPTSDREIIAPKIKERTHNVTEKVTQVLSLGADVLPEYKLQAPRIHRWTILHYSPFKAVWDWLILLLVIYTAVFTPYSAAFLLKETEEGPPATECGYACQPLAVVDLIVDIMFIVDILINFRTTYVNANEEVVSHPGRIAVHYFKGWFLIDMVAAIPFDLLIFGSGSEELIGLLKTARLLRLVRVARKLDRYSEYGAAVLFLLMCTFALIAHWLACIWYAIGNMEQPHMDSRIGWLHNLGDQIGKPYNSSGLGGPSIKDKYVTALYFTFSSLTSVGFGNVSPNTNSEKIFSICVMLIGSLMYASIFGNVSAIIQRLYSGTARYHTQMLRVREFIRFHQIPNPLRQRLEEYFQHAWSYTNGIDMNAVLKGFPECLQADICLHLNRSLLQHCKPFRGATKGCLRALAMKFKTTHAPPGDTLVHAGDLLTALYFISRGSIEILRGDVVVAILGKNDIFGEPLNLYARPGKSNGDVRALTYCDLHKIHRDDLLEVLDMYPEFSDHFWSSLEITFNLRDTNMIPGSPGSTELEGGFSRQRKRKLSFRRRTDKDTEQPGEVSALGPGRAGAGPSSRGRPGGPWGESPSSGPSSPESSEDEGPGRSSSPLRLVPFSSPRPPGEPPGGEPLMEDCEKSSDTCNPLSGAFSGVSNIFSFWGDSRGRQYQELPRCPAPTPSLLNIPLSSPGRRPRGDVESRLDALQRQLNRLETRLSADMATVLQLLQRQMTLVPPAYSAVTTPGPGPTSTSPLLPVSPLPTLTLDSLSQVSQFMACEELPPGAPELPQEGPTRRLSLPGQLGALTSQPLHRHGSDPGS
row,Compound,"hERG current change (%, negative = inhibition) at 1uM [%]"
1,O=c1ccc2cc(S(=O)(=O)Nc3ccc(F)cc3)ccc2o1,2.47
2,COc1cc(C(=O)Nc2ccc3c(c2)nc(C)n3C)cc(OC)c1OC,17.5
3,O=C(Cn1ccc([N+](=O)[O-])n1)N1CCCc2ccccc21,4.59
4,CC1(C)CC(NC(=O)C2CCCCC2)CC(C)(C)N1,10.6
5,COc1ccc(-c2[nH]c(-c3ccc(C)cc3)nc2SCC(=O)NCc2ccco2)cc1OC,14.5
6,COC(=O)c1ccc2c(=O)n(CC3CCCO3)c(SCC(=O)Nc3ccccc3Cl)nc2c1 (stereo not drawn),7.25
7,CC(C)Cc1nnc(NC(=O)c2ccc([N+](=O)[O-])cc2)s1,13
8,Cc1ccnc(NS(=O)(=O)c2ccc(C(C)(C)C)cc2)c1,9.24
9,Cc1cc(N2CCN(c3ccc([N+](=O)[O-])c4cccnc34)CC2)c2ccccc2n1,-13.9
10,Cc1ccc(C(=O)Nc2ccc(S(=O)(=O)N3CCOCC3)cc2)cc1,19.3
11,Nn1cnnc1SCC(=O)N(C1CCCCC1)C1CCCCC1,13.9
12,CCOP(=O)(OCC)C(Nc1ccccn1)c1ccccc1 (stereo not drawn),4.13
13,N#Cc1c(-c2ccccc2Cl)cc(C2CC2)nc1N,9.39
14,O=C(c1c(F)cccc1F)N1CCN(c2ncccn2)CC1,12.5
15,Cn1c(N)c(C(=O)CSc2nnc(C3CC3)n2N)c(=O)n(C)c1=O,3.6
16,Br.CCOC(=O)c1c(CSC(=N)N)n(-c2ccc(C)cc2)c2cc(Br)c(OC(C)=O)cc12,-36.7
17,COc1ccc(NC(=O)ON=C2c3ccccc3-c3ccccc32)cc1,7.16
18,CCCCCn1c(=O)[nH]c2cc(C(=O)N3CCN(CC)CC3)ccc2c1=O,13.6
19,C/C(=N/NC(=O)C(O)(c1ccccc1)c1ccccc1)c1ccc([N+](=O)[O-])o1,-2.41
20,O=C(Cn1c(=O)oc2ccccc21)N1CCCC1,8.6
21,N#CCSc1nnc(COc2cccc3ccccc23)n1-c1ccccc1,8.21
22,CC(C)(C)NCCOc1ccc2ccccc2c1,14.6
23,COc1cc(C2/C(=C(\O)c3ccc4c(c3)OCCO4)C(=O)C(=O)N2Cc2ccco2)cc(OC)c1OC (stereo not drawn),16.2
24,CCc1ccccc1NC(=O)c1cnc2scc(C)n2c1=O,1.27
25,COc1cc(C(=S)N2CCOCC2)cc(OC)c1OC(=O)c1cc([N+](=O)[O-])c(C)c([N+](=O)[O-])c1,11.9
26,CC(C)CN(C(=O)COC(=O)c1cnc(Cl)c(Cl)c1)c1c(N)n(Cc2ccccc2)c(=O)[nH]c1=O,8.68
27,COC(=O)C(NC(=O)c1ccc(Cl)cc1)(Nc1nc(C)cs1)C(F)(F)F (stereo not drawn),15.6

row,Compound,"hERG current change (%, negative = inhibition) at 1uM [%]"
1,COc1ccc(-c2csc(Nc3ccc(C)cn3)n2)cc1OC,0.435
2,O=C(CN(Cc1ccco1)C(=O)CNS(=O)(=O)c1ccc(F)cc1)NCCc1ccccc1,-3.94
3,CCN(CCn1cccn1)Cc1cn[nH]c1-c1ccc(OC)cc1F,-5.87
4,CN(CC(=O)Nc1ccc(S(N)(=O)=O)cc1)Cc1ccccc1F,7.82
5,CSCCC(NC(=O)c1ccco1)C(=O)NCC1CCCCC1 (stereo not drawn),10.5
6,COc1ccc(NC(=O)CN(C)CC(=O)Nc2sc3c(c2C(N)=O)CCC3)cc1,-21.7
7,CCCOc1ccc(OCCSc2ncccn2)cc1,7.67
8,Cc1ccc(CNC(=O)C2CC(c3ccccc3[N+](=O)[O-])=NO2)cc1 (stereo not drawn),-15.3
9,CCOc1ccc(-c2cn(-c3cccc(SC)c3)c(=O)[nH]2)cc1,2.84
10,O=C(CSc1nc2[nH]c(=O)[nH]c(=O)c2s1)Nc1cccc(F)c1,15.4
11,CC(=O)C1=C(C)NC2=C(C(=O)CC(C)(C)C2)C1C (stereo not drawn),29.4
12,COc1cccc(NC(=O)c2ccc(S(=O)(=O)N(C)C)cc2)c1,0.787
13,CCOC(=O)C1=C(CSc2nc(-c3ccccc3)ccc2C#N)OC(N)=C(C#N)C1c1cccnc1 (stereo not drawn),-6.76
14,O=C(NC1CCCC1)C(c1ccccc1)N(Cc1cccnc1)C(=O)Cc1cccs1 (stereo not drawn),18.1
15,Cc1c(CC(=O)NCC(=O)N[C@H](Cc2ccccc2)C(=O)O)c(=O)oc2cc(O)ccc12,5.36
16,O=C(O)CN1CCCC1=Nc1ccccc1,5.22
17,CC(=O)N(C)c1ccc(NC(=S)NCC(C)C)cc1,8.74
18,CCOC(=O)N1CCN(C(=O)c2cc(OC)c(OC)c(OC)c2)CC1,7.73
19,Cc1ccccc1C(=O)Nc1cccc(NC(=O)c2ccccc2[N+](=O)[O-])c1,8.9
20,COc1ccc(S(=O)(=O)N2CC(O)CC2C(=O)OCc2nc3sc(C)c(C)c3c(=O)[nH]2)cc1 (stereo not drawn),-2.46
21,Cc1cc(C(=O)COC(=O)c2cccnc2Cl)c(C)n1-c1c(C)n(C)n(-c2ccccc2)c1=O,11.3
22,O=C1CCN(Cc2ccccc2)CCN1[C@H](CO)Cc1ccccc1,11.2
23,CC(NC(=O)C1CCC(C(=O)NC(C)c2ccccc2)CC1)c1ccccc1 (stereo not drawn),16.3
24,CCOC(=O)c1c(NC(=O)C2COc3ccccc3O2)sc(C(C)=O)c1C (stereo not drawn),7.08
25,O=C(Nc1ccc(S(=O)(=O)NCCc2ccccc2)cc1)c1ccco1,-1.28
26,Cc1ccccc1Cn1c(=O)n(-c2ccccc2)c(=O)c2ccc(C(=O)NCc3ccco3)cc21,7.62
27,CC(C)(C)NS(=O)(=O)c1ccc(NC(=O)C(Sc2ccccc2)c2ccccc2)cc1 (stereo not drawn),11.9
